Values marked as one replicate rest on one cluster of the flow cell; about a third of the high ones do not repeat.
System: ATP
Assay: switch fluorescence ratio, 500 uM ATP over buffer (Cy3 cluster intensity, sum of 5 cycles each) (fold (ratio)); higher = stronger signal-on switching upon ATP binding; sequences stand for … in TCGTCGGCAGCGTCAGATGTGTATAAGAGACAGTTTTTTTTTTTTTTTTTTTTTTTTT…TC
Conditions: aptamer strand: ATP DNA aptamer (quencher-CACCTGGGGGAGTATTGCGGAGGAAGG + anchor), 100 nM annealed; ATP concentration: 500 uM; one replicate
In short: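 Switching-strand clusters labelled with Cy3 on a modified Illumina MiSeq flow-cell were annealed to 100 nM quencher-labelled ATP aptamer, imaged in selection buffer, and re-imaged after 15 min with 500 uM ATP at 22 °C. This was done over five cycles with NaOH stripping and re-annealing in between. The fluorescence ratio is summed target-cycle over summed buffer-cycle Cy3 intensity per cluster, averaged per switch-domain sequence, excluding clusters outside 100-1000 RFU.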
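Also: ATP exposure 15 min at 22 °C before imaging.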

Sequence | switch fluorescence ratio
AGCGTCTGAT | 0.972
AACACAACG | 1.16
GACGAAACTA | 1.36
CCTACGGCG | 1.24
TTTGGGCGGA | 1.04
AGCCTGGGTA | 0.987
CAGAATAAGT | 1.01
TATTTCTGG | 0.937
AGCTCGGGCG | 1.12
AGCCACTACG | 1.02
CGCGTTGCTG | 1.01
GTGGTGACGT | 1.04
ATGTCTTAGG | 1.01
ATAGGAGAGG | 0.989
TCCGAGCCGC | 1.52
CCAACCCGAA | 1.71
TCGTACTAGG | 0.984
GGATCCTAAC | 0.99
TACACTATTT | 1.05
AATTGCACCG | 1.06
TGAGCGGGG | 0.983
GCACAGGTGG | 1.33

Sequence | switch fluorescence ratio
GGAGAAACAA | 1.02
GAGATACATT | 1.03
ACAAATGACC | 1.04
CGTTTGCCTC | 0.926
CAATGGATGG | 0.975
CCCTCAAGGG | 1
CGAGGAAGAT | 1.11
CCGGCGGGTA | 1.03
TTCTACCACG | 0.987
GGCGGAGGGC | 0.945
TGGCTGAAAT | 1.21
GATATAAACA | 0.98
TAAAAGAAG | 0.99
GGGAGAGAAG | 0.964
AGGTAGATTG | 0.972
AGTGCGATTG | 0.974
TGTTGTACGC | 1
GTAGTGTTTT | 0.972
TGGGCTTTGT | 0.991
TTACGTGATG | 1.04
GTTATGTGGG | 0.956
CGGAGCCCGA | 1.01

Sequence | switch fluorescence ratio
TAAAACTGGG | 0.976
GAGTTCGATG | 0.973
ACCTGCAAGA | 1.77
GGCGTAAGGT | 0.997
CAGCGGTTTT | 1.01
TGACTACTCT | 1.02
TGTGTCTGCA | 1
TCTTATAAT | 1.01
ATATCATACT | 1.02
GTTTCTAAAC | 1
ATTGCGTAAT | 1.03
CGTGTCTGTA | 0.956
AACCACCCGT | 1.04
CCCAAGTCTC | 1.14
GCACCCATTA | 1.02
GCATAC | 4.02
CCTTCAGTCG | 1.29
GGTCAAGTAC | 1.17
TGACCGGTAG | 1.04
TGTTGGAAGC | 0.992
AGTCAATCTG | 0.931
GAGTCGCATA | 1.1

Sequence | switch fluorescence ratio
AGTAATGGGG | 0.958
CTCAATCTCG | 1.34
AATATGTGT | 0.982
AGTAATTTCA | 1.03
CCTTGATCGA | 0.985
CACGATAGCT | 1.12
GACGTCTAAG | 0.992
AGGCTGCATC | 1.11
AAGCCGGACT | 1.07
AGCTTCCGAT | 2.87
CGTGGGACTT | 0.987
ACCCATAATT | 1.01
ATACATCAAA | 0.989
ATTAAGGGCG | 0.96
ATCCATACTT | 0.996
TAGTGTAT | 1.05
TCATATCCTT | 0.998
TGTCAGACGA | 0.987
TCCTATGTTA | 1.05

From the supplement of paper PMC10126150
